22 molecules from article PMC12136788 can be followed below.

This is one part of the list.

Sequences and labels used below:
T1: UNK ZnF1-3 (human, UniProt Q9C0B0 31-174)
T1 sequence: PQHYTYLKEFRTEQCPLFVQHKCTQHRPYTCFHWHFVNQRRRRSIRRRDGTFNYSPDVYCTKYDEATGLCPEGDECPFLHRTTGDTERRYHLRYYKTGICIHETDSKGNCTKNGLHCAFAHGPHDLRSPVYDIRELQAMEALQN

B1: 33718304_33721134_463_CDS_ENSG00000134759_ENST00000351393|human|control|control (ssRNA)
RNA: GGGAGUUCUACAGUCCGACGAUCUCUGCAAUCAUCAUUGCCACAUGCUAAUAUUGGUACUUCUGGACCCUUUUUAGACCAGAGUCGAACAGCAGAAUCUGCAGCUGCAGAAACGAUCAGUGUACAUAAUGCAGGAUCUGAUGUCAACAGAGGAUUGAGCAUCA
B2: chr14:52433459:52433460:+_ENSG00000186469_ENST00000556752|hu_mus|FALSE|FALSE (ssRNA)
RNA: GGGAGUUCUACAGUCCGACGAUCGAUGGUUCUCCUUCCUCUCUUUAAAUGCUGUGGACGAGAAAGGCGCCCACUUUGCUAGGAACUCUACAUGUAUGUCCCAGGAGCCCCAACACUCUUCAGCCUCCUCUCAGAGACUUAAAGCAACAGAGGAUUGAGCAUCA
B3: chr1:60041781:60041782:+_ENSMUSG00000041040_ENSMUST00000036540|mus_hu|mus_mus_mus_hu_False|28_68 (ssRNA)
RNA: GGGAGUUCUACAGUCCGACGAUCAAGUUUACAAUAGUAAAGUAAAUGCAGUAGUGGCAAAUUUUCUUUACUUUAGUUUCACAAAAGAAAAUCUUUAUAACCCAGUCCAAUCCCAGAACAUAGUGAAAGCUAUAAAUUCUGACUCAACAGAGGAUUGAGCAUCA
B4: 19711551_19711671_88_5pUTR_ENSMUSG00000002808_ENSMUST00000002885|mouse|control|control (ssRNA)
RNA: GGGAGUUCUACAGUCCGACGAUCCUCUCUCGAUUUUCCGUUCCACAGGCUCCUGGCUUGGGGGCUCCGGACACCGGGACACCGGCCUGGGAAAGCCGCGUGAAUCGCCCCAGCUCUUUCUGCUCUGGCGGAGGCUUACCAAAGCAACAGAGGAUUGAGCAUCA
B5: chr16:94664741:94664742:+_ENSMUSG00000040785_ENSMUST00000117648|mus_hu|mus_mus_mus_hu_False|88_88 (ssRNA)
RNA: GGGAGUUCUACAGUCCGACGAUCUGGUACUGAUCUUGGUAGCUGAUACUCAGAAGAAAGGCUGGCCAAGGGUGUAUAUAUGCUGGUGUACUGGGGCAAACCUGGUAACACGUUUAUGUAUGCUGGCGGUGUCUGGGUGAUAUCCAACAGAGGAUUGAGCAUCA
B6: chr1:204375296:204375297:-_ENSG00000158615_ENST00000367188|hu_mus|FALSE|FALSE (ssRNA)
RNA: GGGAGUUCUACAGUCCGACGAUCUGUUCACUUCUUAACAUUGCUGUACAACAGUAAGUCCUUUGACUCGAUCCUCAGUCUAUUAAACAUUUUUUCUCUGUGCUCAAAGGCCAAGCAGUAGCCAAUGGCAACUUCUGUUUCUUGCAACAGAGGAUUGAGCAUCA
B7: chr12:48362563:48362564:+_ENSG00000134291_ENST00000256686|hu_hu|hu_hu_hu_mus_False|88_108 (ssRNA)
RNA: GGGAGUUCUACAGUCCGACGAUCUCCGAAGGGUGAAUCGAUAGACCCAUAGACUCUAAACUGUAAUCACUUUGUAUGGGGAAGGAAAAGAAACGCCAAAAACUUUCCAAAAAGCGGGGGUGGGGUGAGGCGGGAGGGGGAGGUCAACAGAGGAUUGAGCAUCA
B8: 116039567_116040058_1445_CDS_ENSMUSG00000020777_ENSMUST00000066587|mouse|control|control (ssRNA)
RNA: GGGAGUUCUACAGUCCGACGAUCACCAGCAUUGGCUGUCCAGGUAGUAAAAGCCUUCAGCCCAGCUGUGAGGGCAUGAAGCUCAGGCAGCUCACUCAGGUCGCCUUGGCCAAUGCUCUCAUUAAUCCGCAUGUAGGUCUCCUUCAACAGAGGAUUGAGCAUCA
B9: 25636282_25639098_1073_CDS_ENSMUSG00000020646_ENSMUST00000110942|mouse|control|control (ssRNA)
RNA: GGGAGUUCUACAGUCCGACGAUCUGUCUGGAUAUUCCAGUUAUCAAGAAACAUCUUAAAACUUGUUGACAUCUCUAUUUGCUGAAUUCUCAAGUUGGAAAUUAAGUCCCAGCGAGCCACUCCAUUCUUGUCGUAUCCUCUGAACAACAGAGGAUUGAGCAUCA
B10: chr1:60041781:60041782:+_ENSMUSG00000041040_ENSMUST00000036540|mus_hu|mus_mus_mus_hu_False|18_78 (ssRNA)
RNA: GGGAGUUCUACAGUCCGACGAUCAAGUUUACAAUAGUAAAGUAAAUGCAGUAGUGGAAUGGCAAGUUUUAUUUUCCUUCACAAAAGAAAAUCUUUAUAACCCAGUCCUAGUCUUGGCAGAGAAAGCAGCUAUAAAUUCUGACUCAACAGAGGAUUGAGCAUCA
B11: chr6:38652254:38652255:-_ENSG00000124767_ENST00000373365|hu_hu|hu_hu_hu_mus_False|8_98 (ssRNA)
RNA: GGGAGUUCUACAGUCCGACGAUCCGAGAACUUCAUAAUGGGAAAAUCAAGCUUCUGCAGGAGGGUCAGUCCAAGAACCCUCGUAUAAAAAUCCAGGGACUUCUUAGGAUCCUUAAUUCUUAGCAUCGUCUGCUGCAGUAGAAACAACAGAGGAUUGAGCAUCA
B12: chr7:109309172:109309173:-_ENSMUSG00000063550_ENSMUST00000070165|mus_hu|FALSE|FALSE (ssRNA)
RNA: GGGAGUUCUACAGUCCGACGAUCUGACUUGGCUGUGCCUGUUGUUUGUAAAGCCUUUGGCCGGACUCUAGUGGCAGGGCGGGGUGUCAGUUUAUAAUGAGUAGGUGUAGUAAGAGCCUUCUGGGCUGCUGGAUUUGUUGGUUUCAACAGAGGAUUGAGCAUCA
B13: chr1:163112212:163112213:-_ENSG00000143248_ENST00000313961|hu_hu|hu_hu_hu_mus_False|48_78 (ssRNA)
RNA: GGGAGUUCUACAGUCCGACGAUCUUUUAUUAUCAGUAAGAGUGAGUUACAUACUAGAUAAAGUAUUGGAUACAAUAAUCAGGAAACAAACACAAUUGGUCCAGAAUUUAAAACUUUAUGAGCGAAGUGCUGGCACAGGACUUACAACAGAGGAUUGAGCAUCA
B14: chr10:127947519:127947520:-_ENSMUSG00000025366_ENSMUST00000026427|mus_mus|FALSE|FALSE (ssRNA)
RNA: GGGAGUUCUACAGUCCGACGAUCGCUCAGGUCCCUGCCCUGGGAGCCCGCAGGAUAAAGGCCGUGCAGAAAGGAGUAACAUGUGAUCCUCUUUGGUCAAGCAAAGACCCAUAUACGGGCCCAGAAGGCAAAAGGGCACAGGCUCAACAGAGGAUUGAGCAUCA
B15: chr3:105756983:105756984:-_ENSMUSG00000000563_ENSMUST00000118209|mus_hu|motif|central (ssRNA)
RNA: GGGAGUUCUACAGUCCGACGAUCAGCAAAGUCUGCAACAAAGGGACCAUAUUUUUUAAUUCCAUAGACCAUUACACCGGGUACUGAUAGGGCAGUGAAGGUCUCUGCGCUAAUCACAUAUAUUUCUUUGGAUAAAGCGUACAACAACAGAGGAUUGAGCAUCA
B16: chr4:25749455:25749456:-_ENSG00000091490_ENST00000264868|hu_hu|hu_hu_hu_mus_False|38_58 (ssRNA)
RNA: GGGAGUUCUACAGUCCGACGAUCGCACUAUGACCUCUAGAAAAAUCCACAGGGGGAAAAAAUGUAAACCAAUGUACAAAGCUAUUGCCUUCCCUGUAUUUCCAGGCUUUGUCUCAAGGCUCCUUCUAGCUGCUGGAUUUGGGACAACAGAGGAUUGAGCAUCA
B17: chr9:96246283:96246284:-_ENSMUSG00000032412_ENSMUST00000034983|mus_hu|motif|central (ssRNA)
RNA: GGGAGUUCUACAGUCCGACGAUCCUGAAGCAUAACCCACAUCGUGAAUGAGAAGAGUGCAGCCAGGAACCCAUAAAAAACGGGGUAGAAGAGCAAGAUCAAACCCCAGCUCUUGGCGGUGCGCCCCAGGAAUUCUCCGGUGGUCAACAGAGGAUUGAGCAUCA
B18: chr7:140404665:140404666:+_ENSG00000090266_ENST00000247866|hu_hu|hu_hu_hu_mus_False|1_18 (ssRNA)
RNA: GGGAGUUCUACAGUCCGACGAUCUGCUCCUACUCGUCCAGAGAGUUUACAGUGUCAGUCCUCGUCAUCAGGAGGGAUUCCCAGUUCUUCAUCUGUCCACUGUGAAGGAUCUGGAUACGGAAAGUGACCCAGCACAGCUUCUGACAACAGAGGAUUGAGCAUCA
B19: chr10:90581586:90581587:-_ENSMUSG00000061904_ENSMUST00000076694|mus_hu|FALSE|FALSE (ssRNA)
RNA: GGGAGUUCUACAGUCCGACGAUCAGCUUCCAUAGGAGCCAGGGCAAUGUCAGCAAAGAAUUCAGCACUGGCAGAGGCAGCCAAAUAUAGUGAUGUGCGCCAGAGAUAAGUAUUCUCCUCUCCAAGCAUAUUGCUAUACAAGACCAACAGAGGAUUGAGCAUCA
B20: chr9:35286173:35286174:+_ENSMUSG00000038119_ENSMUST00000042842|mus_mus|FALSE|FALSE (ssRNA)
RNA: GGGAGUUCUACAGUCCGACGAUCAGUAUUAUUGUUACUUGAUGGAACAUACGUCCAUUUCAGCAUGAUCUGAGUGUCGCUAACAGCCUCUGUGUAUGCGAUGUGAGGUCCAGUUAUUGGGCGAUUGGAAAAACGAUUUGGGAACAACAGAGGAUUGAGCAUCA
B21: chr15:51794541:51794542:-_ENSMUSG00000022314_ENSMUST00000022927|mus_mus|FALSE|FALSE (ssRNA)
RNA: GGGAGUUCUACAGUCCGACGAUCCAUGGAAGUCUUAGUUUUAAAACUGAUUUCCCCCCCAUAAAAGUGCCAACACUUAAGCUAGAACUUUUCAACAUAAUUUUGUCCUACAAAGUGAACAUGUUUUGAUAUUUAUAUAGUCACCAACAGAGGAUUGAGCAUCA
B22: 43613574_43613694_3151_3pUTR_ENSMUSG00000032012_ENSMUST00000034510|mouse|control|control (ssRNA)
RNA: GGGAGUUCUACAGUCCGACGAUCAUGUUUGUGAUCCCUCAGCGAGUGUCACUUAGGGCUGAGUUGGCUGAGAUCCUGACAGGCAGGCCCUGGGAAUGCCCAUUUAGAAUGAGGGUAAUCUGGGGGCACAGAUGGAGAAACCGACAACAGAGGAUUGAGCAUCA

The target of the assay is T1, UNK ZnF1-3. Description: nsRBNS (natural sequence RNA bind-n-seq); RBNS binding buffer (assumed for nsRBNS): 25 mM Tris pH 7.5, 150 mM KCl, 3 mM MgCl2, 0.01% Triton X-100, 500 ug/ml BSA, 20 U/ml SUPERase-In, 4 C; UNK is unkempt and MSI1 is Musashi-1; names of the RNAs are library labels; protein concentration not given here; high values mean tight binding.
In turn, B1 displayed a binding signal of 0.897 enrichment R.
The value for B2 was 0.807 enrichment R; that for B3 was 0.374 enrichment R.
B4: the binding signal stood at 0.832 enrichment R.
For B5, the binding signal is 0.998 enrichment R.
Regarding B6, the binding signal was 0.632 enrichment R.
For the molecule B7, the binding signal was found to be 2.14 enrichment R.
The value for B8 was 0.651 enrichment R.
Then B9, with 0.887 enrichment R; and B10, with 1.01 enrichment R.
Molecule B11 registered a binding signal of 0.92 enrichment R.
B12: the binding signal came to 0.804 enrichment R.
Consider B13, for which the binding signal turned out to be 1.18 enrichment R.
As for B14, the binding signal was determined as 1.21 enrichment R.
Turning to B15, the binding signal amounted to 2.26 enrichment R.
On to B16, for which the binding signal is 1.18 enrichment R.
B17 gave a binding signal of 1.55 enrichment R.
For B18, the binding signal amounted to 1.31 enrichment R.
For B19, the binding signal amounted to 2.02 enrichment R.
Then B20, with 0.899 enrichment R.
The molecule B21 had a binding signal of 0.94 enrichment R.
For B22, the binding signal was determined as 0.978 enrichment R.
